Experimental findings from PubChem BioAssay (NCI) are described below.

Values joined by “and” are separate entries in the source; they are usually repeats but may differ in a detail not shown here. Equal entries are not always repeated.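 Step 1: Grow cells in 96-well plates. Step 2: Expose to compound for 48 hours at 5 concentrations. Step 3: Interpolate endpoints linearly; if unreached, use highest concentration. GI50: concentration for 50% inhibition of growth. Definition used: TGI = concentration required for complete inhibition of growth.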 A value given as a limit tells only on which side of the number the result lay.

For orientation: GI50 means the concentration at which growth is held to half of that of the control. Broadly, the TGI is the concentration at which net growth stops. Lower therefore signals more potent growth arrest.

The subject of this experiment is NCI-H322M lung. Briefly: DTP human tumour cell line panel, 48 h.
Regarding `O=C(Nc1ccccc1O)c1ccc(Oc2cccc(C(=O)Nc3ccccc3O)c2)cc1`, the GI50 was 3.15 µM and the TGI is 13.8 µM.

Compound `CCOC(=O)/C=C(\C(=O)OCC)n1ccc(N)nc1=O` had a TGI of more than 100 µM.

In turn, `NC(N)=NNC(=O)CCCCCCCC(=O)NN=C(N)N` came in with a concentration for total growth inhibition (TGI) of more than 100 µM.

As for `C=CCC1(O)c2cccc(NCCO)c2C(=O)c2c(NCCO)cccc21`, the GI50 is more than 100 µM and the TGI is more than 100 µM.

Regarding `O=C(Nc1ccc(Cl)cc1)c1cc(-c2ccc(Cl)cc2)c2sc(=O)[nH]c2n1`, the GI50 is 2.81 µM and the TGI was 9.72 µM.

As to `COc1cc(CC2c3cc(OC)c(OC)cc3CCN2C)c(Oc2cc3c(cc2OC)-c2c(O)c(OC)cc4c2C(C3)N(C)CC4)cc1OC` (stereo not given), the TGI turned out to be 45.2 µM.

On to `COc1ccccc1C#Cc1ccccc1C#CCCCCCC#Cc1ccccc1C#Cc1ccccc1OC`, for which the GI50 was 86.7 µM and the concentration for total growth inhibition (TGI) is more than 100 µM.

For `Cc1c(C)[n+](=O)c(C)c(C)n1[O-]`, the GI50 was more than 100 µM and the concentration for total growth inhibition (TGI) is more than 100 µM.

The compound `Nc1ccccc1N/C=C\C(=O)C(Cl)(Cl)Cl` returned a TGI of more than 100 µM.

`NCCNc1cccc2ccccc12` yielded a total growth inhibition concentration (TGI) of more than 100 µM.

For the compound `C=CCSC1=N/C(=C\c2ccccc2)C(=O)N1CC=C`, the TGI was more than 100 µM.

As to `Cc1cccc(C2=NC(C)(C)C(C)(C)N=C2c2cccc(C)n2)n1`, the total growth inhibition concentration (TGI) was more than 100 µM.

Take `Cc1c2c[n+](C(C)C)ccc2c(C)c2c1[nH]c1ccccc12`: the GI50 is 3.36 µM and the TGI was determined as 39.7 µM.

As for `CN(C)CCNC(=O)c1cccc2nc3c(nc12)-c1ccccc1C3=O`, the TGI came out at 41 µM.

The compound `Cc1cn(CC2=NCC(C)(C)N2)c(=O)[nH]c1=O` had a TGI of more than 100 µM.

`CN(C)Cc1cc(O)c(O)c(CN(C)C)c1` returned a TGI of more than 100 µM.

Turning to `COc1ccc(-c2c(N)n(-c3cccc(C(=O)O)c3)c(=O)c3cc([N+](=O)[O-])ccc23)cc1`, the TGI is more than 100 µM.

`C=C1C(=O)O[C@H]2[C@H]1CC/C(COC(=O)CSCC(=O)OC/C1=C/CC[C@@]3(C)O[C@H]3[C@H]3OC(=O)C(=C)[C@@H]3CC1)=C\CC[C@@]1(C)O[C@@H]21`: the GI50 is 10.7 µM and the total growth inhibition concentration (TGI) was determined as 22.6 µM.

`COc1ccc(C(=O)c2cc3c(OC)c(OC)c(OC)cc3[nH]2)cc1`: the GI50 was more than 100 µM and the TGI was more than 100 µM.

For the compound `NC(=O)C#CC(N)=O`, the total growth inhibition concentration (TGI) is 362 µM and > 100 µM.

On to `O=C(N/N=C/c1cc(Cl)cc(Cl)c1[O-])c1ccccc1O.O=C(N/N=C/c1cc(Cl)cc(Cl)c1[O-])c1ccccc1O.[Ni+2]`, for which the GI50 is 0.646 µM and the TGI was found to be 7.22 µM.

Regarding `C=CC(=O)N[C@H]1CCOC[C@H]1Nc1ncc2cc(-c3c(Cl)c(OC)cc(OC)c3Cl)ccc2n1`, the GI50 was 31.1 µM and the TGI is more than 100 µM.

In turn, `COC(OC)C1OC(CO)C(n2ccc(N)nc2=O)C1O` (stereo not given) registered a TGI of more than 100 µM.

Turning to `CC(=O)OC1(C)C(=O)OC1(C)C(C)=O` (stereo not given), the TGI is more than 100 µM.

For `C=C(c1ccc(C(=O)N(C)c2ccccc2N)cc1)C(C)N1C(=O)[C@H]2CCCN2C(=O)c2ccccc21` (stereo not given in full), the GI50 is 76.3 µM and the TGI is more than 100 µM.

The compound `COc1cc(/C=C2\N=C(c3ccccc3)N(c3nc4c(OC)ccc(OC)c4s3)C2=O)cc(OC)c1OC` registered a concentration for total growth inhibition (TGI) of more than 100 µM.

`Oc1ccc(SCc2cc(O)c(O)c(O)c2)cc1`: the TGI was more than 100 µM.

On to `C(=C\c1ccccc1)/C=N/c1nc2cc3sc(/N=C/C=C/c4ccccc4)nc3cc2s1`, for which the TGI is more than 100 µM.

With `N#CC1=C(N)NC(=O)NC12Nc1ccccc1S2` (stereo not given), the GI50 was 14.3 µM and the TGI amounted to 37 µM.

With `CC(CO)C1C[C@H](O)[C@@]2(C)CC(=O)C=C(CO)[C@@H]2C1` (stereo not given in full), the TGI was more than 100 µM.

Regarding `Cc1ccc2c(c1)NC(=O)CC(c1ccccc1)=N2`, the TGI is more than 100 µM.

Compound `CC[C@H](C)[C@H]1NC(=O)[C@@H](NC(=O)[C@@H](CC(C)C)N(C)CC2CCCN2C(=O)C(C)=O)[C@@H](C)OC(=O)[C@H](Cc2ccc(OC)cc2)N(C)C(=O)C2CCCN2C(=O)[C@H](CC(C)C)NC(=O)[C@@H](C)C(=O)[C@H](C(C)C)OC(=O)C[C@@H]1O` (stereo not given in full) registered a TGI of 0.0154 µM.

`CCCCOP1(=O)C=C(C)C(=C(Cl)Cl)C(C)=C1` (stereo not given) had a TGI of 54.8 µM.
